Results reported in paper PMC5738409.
Results are given in words; binding and its absence hold for the method and conditions named. For part of these data: In cells and extracts the contact can be indirect. Some binding calls cover weakened binding; strength is not graded here. For part of these data: Tags and fused reporters may be left off the sequences shown.

Key:
p53_3xHA (Drosophila) [1] = molecular target: T1, p53_3xHA (Drosophila) (UniProt Q9N6D8); experiment: co-IP; head extracts of flies (Gmr-Gal4 UAS-CycG::UAS-p53_3xHA) 2 hrs after irradiation with 40 Gy; anti-HA and Protein A Sepharose, 2 hrs at 4 °C; blot with anti-CycG; no antiserum as mock control
T1 sequence: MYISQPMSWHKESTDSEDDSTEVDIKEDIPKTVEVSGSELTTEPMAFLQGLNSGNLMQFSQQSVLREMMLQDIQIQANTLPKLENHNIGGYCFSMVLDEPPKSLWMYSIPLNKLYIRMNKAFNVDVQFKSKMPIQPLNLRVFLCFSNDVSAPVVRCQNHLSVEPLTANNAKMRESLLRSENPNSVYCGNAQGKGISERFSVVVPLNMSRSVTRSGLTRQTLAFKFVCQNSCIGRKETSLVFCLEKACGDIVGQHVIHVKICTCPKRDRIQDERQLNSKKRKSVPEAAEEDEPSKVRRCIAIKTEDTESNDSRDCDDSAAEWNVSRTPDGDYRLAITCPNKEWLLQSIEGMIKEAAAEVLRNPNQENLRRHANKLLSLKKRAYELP

Flag-Rad9 (Drosophila) = molecular target: T2, Flag-Rad9 (Drosophila) (UniProt O96533); experiment: co-IP; head extracts of irradiated (40 Gy) flies (Gmr-Gal4 UAS-CycG::UAS-GFP-Rad1 UAS-Flag-Rad9); precipitation with anti-Flag and Protein A Sepharose; blots with anti-CycG, anti-Flag, anti-GFP
T2 sequence: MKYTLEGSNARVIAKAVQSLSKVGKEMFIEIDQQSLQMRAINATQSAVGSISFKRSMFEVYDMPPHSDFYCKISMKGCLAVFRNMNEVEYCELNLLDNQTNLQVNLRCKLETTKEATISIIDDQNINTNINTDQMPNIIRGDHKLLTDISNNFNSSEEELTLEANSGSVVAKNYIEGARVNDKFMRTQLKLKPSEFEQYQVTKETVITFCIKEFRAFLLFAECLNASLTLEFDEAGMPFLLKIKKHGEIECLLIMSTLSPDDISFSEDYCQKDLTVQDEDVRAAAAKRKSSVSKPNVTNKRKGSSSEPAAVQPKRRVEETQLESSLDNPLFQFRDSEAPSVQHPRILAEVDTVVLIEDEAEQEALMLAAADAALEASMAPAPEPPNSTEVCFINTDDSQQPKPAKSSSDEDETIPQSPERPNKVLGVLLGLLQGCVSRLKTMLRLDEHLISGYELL

GFP-Rad1 (Drosophila) = molecular target: T3, GFP-Rad1 (Drosophila) (UniProt Q9VQD4); experiment: as above
T3 sequence: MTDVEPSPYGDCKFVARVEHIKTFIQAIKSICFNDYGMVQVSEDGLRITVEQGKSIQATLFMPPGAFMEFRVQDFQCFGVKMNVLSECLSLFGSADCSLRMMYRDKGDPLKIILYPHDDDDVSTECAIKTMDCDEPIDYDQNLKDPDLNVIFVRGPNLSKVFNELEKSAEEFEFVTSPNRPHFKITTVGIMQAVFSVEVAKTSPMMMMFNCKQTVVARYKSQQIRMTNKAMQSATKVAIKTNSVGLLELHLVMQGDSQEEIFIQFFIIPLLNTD

p53 (Drosophila) = molecular target: T4, p53 (Drosophila) (UniProt Q9N6D8); experiment: two-hybrid; yeast two-hybrid in EGY40 cells with pEG202 and pJG4-5 vectors; lacZ reporter, blue colonies; empty vectors as controls
T4 sequence: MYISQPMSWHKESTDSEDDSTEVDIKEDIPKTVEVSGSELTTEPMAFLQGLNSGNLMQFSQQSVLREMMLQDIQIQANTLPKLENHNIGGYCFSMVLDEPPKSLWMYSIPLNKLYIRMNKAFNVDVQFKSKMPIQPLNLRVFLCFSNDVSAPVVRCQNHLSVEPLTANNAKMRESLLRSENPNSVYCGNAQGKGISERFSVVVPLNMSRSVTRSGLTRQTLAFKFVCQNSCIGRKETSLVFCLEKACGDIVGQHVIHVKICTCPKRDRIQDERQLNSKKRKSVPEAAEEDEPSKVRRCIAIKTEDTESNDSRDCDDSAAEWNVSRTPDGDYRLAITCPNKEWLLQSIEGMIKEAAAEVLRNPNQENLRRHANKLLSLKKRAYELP

BRCA2 (Drosophila) = molecular target: T5, BRCA2 (Drosophila) (UniProt Q9W157); experiment: co-IP; irradiated flies; how BRCA2 was precipitated or detected is not told in the text shown
T5 sequence: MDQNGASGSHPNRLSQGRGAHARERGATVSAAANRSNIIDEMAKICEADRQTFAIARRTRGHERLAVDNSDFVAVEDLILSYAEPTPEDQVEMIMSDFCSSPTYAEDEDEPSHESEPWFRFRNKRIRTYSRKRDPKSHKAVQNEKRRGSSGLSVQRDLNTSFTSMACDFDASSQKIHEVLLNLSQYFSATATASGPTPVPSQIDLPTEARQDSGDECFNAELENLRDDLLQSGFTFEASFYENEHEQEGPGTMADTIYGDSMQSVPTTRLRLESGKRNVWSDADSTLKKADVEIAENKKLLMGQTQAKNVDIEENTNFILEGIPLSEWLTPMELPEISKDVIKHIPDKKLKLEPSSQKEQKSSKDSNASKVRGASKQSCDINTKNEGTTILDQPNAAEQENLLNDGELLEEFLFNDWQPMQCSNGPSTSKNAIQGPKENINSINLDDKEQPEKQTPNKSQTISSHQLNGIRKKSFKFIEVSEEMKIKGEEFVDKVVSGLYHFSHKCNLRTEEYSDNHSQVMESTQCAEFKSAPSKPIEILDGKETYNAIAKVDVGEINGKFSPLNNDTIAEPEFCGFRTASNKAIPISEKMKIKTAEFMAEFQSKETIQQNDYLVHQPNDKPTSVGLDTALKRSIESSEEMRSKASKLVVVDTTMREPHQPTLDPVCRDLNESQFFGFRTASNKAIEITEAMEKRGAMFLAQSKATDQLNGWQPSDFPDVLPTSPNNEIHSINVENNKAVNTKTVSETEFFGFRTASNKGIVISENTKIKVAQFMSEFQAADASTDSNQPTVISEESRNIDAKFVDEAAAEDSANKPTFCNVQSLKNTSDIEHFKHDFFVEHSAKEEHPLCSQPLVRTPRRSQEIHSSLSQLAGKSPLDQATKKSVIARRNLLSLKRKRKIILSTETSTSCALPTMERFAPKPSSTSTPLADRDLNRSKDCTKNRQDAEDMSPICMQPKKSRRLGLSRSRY

p53_3xHA (Drosophila) [2] = molecular target: T1, p53_3xHA (Drosophila); experiment: co-IP; head extracts of flies (Gmr-Gal4 UAS-CycG::UAS-p53_3xHA) without irradiation; anti-HA and Protein A Sepharose; blot with anti-CycG

B1: Cyclin G (protein, UniProt Q95TJ9 1-566)
chain: MSVPVRYSSAAAEYAAEVDCELESTLQQQQQLHLQQQYEQYQHYQYQREQDIAYYCQLQAARQQEQLMQQRTSMSSSVMPGLALPQDHQDHPAALLNGPHNNNIGLAMDAHSINAILVDDEQPSTSAQAAAAAAASAGGSAGAGSGSGLGGAIGGGKLANGINRNAEMPTDWMRIADEGRYGTPGAAGLEYQKYEQQQQLEDLAESEAGAVGGASNNNGESSSSLKKLEDQLHALTSDELYETLKEYDVLQDKFHTVLLLPKESRREVTAGGRDGSAYVLRCLKMWYELPSDVLFSAMSLVDRFLDRMAVKPKHMACMSVASFHLAIKQLDLKPIPAEDLVTISQCGCTAGDLERMAGVIANKLGVQMGHAPITSVSYLRIYYALFRNLAKEIGGDFFKFYQQLIKLEELENRLEILMCDVKTTVITPSTLALVLICLHLDFHIKESYTRGSPELKHVFEYILFLQQYMRIPDRVFTCGFSIVSGILSHYNGQNKAPYKQRLVWKLSSRTLRVLRPINRFSSDLPTIEEGIPNALDDGLRSRTESISSEEEEDWPTSPIIPIFEQC
In the case of B1, the binding (p53_3xHA (Drosophila) [1]) is reported as “binds”, the binding (Flag-Rad9 (Drosophila)) is reported as “no binding” and the binding (GFP-Rad1 (Drosophila)) is reported as “no binding”. For the same binder, the binding (p53 (Drosophila)) was “binds”, the binding (BRCA2 (Drosophila)) was “no binding” and the binding (p53_3xHA (Drosophila) [2]) was “no binding (condition: flies not irradiated)”.
